Laboratory results reported in ChEMBL document CHEMBL4888484, “Replenishing the malaria drug discovery pipeline: Screening and hit evaluation of the MMV Hit Generation Library 1 (HGL1) against asexual blood stage Plasmodium falciparum ,using a nano luciferase reporter read-out” (2022).
Screen size: about 150,000 compounds; about 540 (0.36%) showed an effect of 50% or more. The list shows a part of the results.

Tested on: Plasmodium falciparum
Test: Primary screen in NF54 nanoGlo assay, in single point, at 2uM, 72h; a lower Z score goes with more inhibition
Assay type: functional, Erythrocyte
Details: timepoint 72 hour

Compound | % Inhibition | Z score
O=S1(=O)CCCN1Cc1cccc(-c2ccc3nonc3c2)c1 | 4% | -0.42
CCN1c2cc(C)ccc2-n2cccc2C12CCN(C(=O)Nc1ccc3c(c1)OCCO3)CC2 | 12% | -1.61
CC(C)(CN1CCOCC1)NC(=O)c1ncc(F)cc1F | -4% | 0.49
CN(C)c1ccc(C(=O)N(CCC#N)CC(C)(C)C)nc1 | -2% | 0.31
O=C1CC[C@H](N2CCC(Cc3ccccc3)CC2)CCN1Cc1ccc(F)cc1 | 3% | -0.67
CC(C)[C@H](NC(=O)CCCn1cccn1)c1nc2ccccc2n1C(C)C | 2% | -0.19
C[C@@H](CC(=O)NC(C)(C)CO)NC(=O)C1CCCCC1 | -10% | 1.56
C=CCN1C(=O)OC(C)(CCC=C(C)C)C1(C)O (stereo unspecified) | 76% | -1.64
CCc1c(C(=O)NCc2nnc(C3CC3)o2)cnn1-c1ccccc1OC | -16% | 1.62
Cc1cccc(NC(=O)Nc2ccc(-c3nc4ccccc4s3)cc2C)c1 | -5% | 0.86
COc1cc(OC)c(C(=O)N2CC[C@H](C(=O)N3CCCC3)C2)cc1OC | 3% | -0.46
CCc1noc(C)c1C(=O)N1C[C@@H]2CC[C@H]1CN(CCCc1ccccc1)C2 | -3% | 0.58
CNC(=O)NC[C@H]1COCCN1C(=O)c1ccc(CC(C)C)s1 | -13% | 1.46
Cc1cccc(NC(=O)c2sc(-n3nc(C)c(Cc4ccc5c(c4)OCO5)c3C)nc2C)c1C | 17% | -1.51
O=C(CC[C@H]1CCCN(C(=O)C2=CCCCC2)C1)N1CCN(c2ccccn2)CC1 | -1% | 0.08
CCn1c(C)nnc1CN1CC[C@@](O)(C(F)(F)F)C1 | 4% | -0.55
CCc1ccc(C(=O)N[C@H](C(=O)O)C(C)(C)C)o1 | -17% | 1.76
COc1ccc(CN2CCC(CO)(CCCc3ccccc3)CC2)cc1 | -14% | 1.54
Oc1cccc(C2=NN(c3nc(-c4ccccn4)cs3)[C@@](O)(C(F)(F)F)C2)c1 | 29% | -3.28
CCS(=O)(=O)NCCNC(=O)c1[nH]cnc1C(C)(C)C | 3% | -0.35
CC(=O)NC[C@H]1OC[C@@H](NCc2ccc(C)cc2)[C@@H]1O | 5% | -0.9
OC(COCC1CC2CCC1C2)CN1CCN(c2ccccc2)CC1 (stereo unspecified) | -4% | 0.51
Cc1cc(=O)n(CC(=O)NC2CCCCC2)c(-c2cccc(Cl)c2)n1 | -4% | 0.61
O=C(O)C1CCN(C(=O)c2cccc3c2CCC3)CC1 | -10% | 1.51
Cc1ncsc1CN(C)S(=O)(=O)c1cncc(Cl)c1 | -14% | 2.19
COCC1(CNC(=O)N[C@@H](C)c2ccc(Cl)cc2)CCC1 | -4% | 0.6
NC(=O)c1ccc(-c2cccc3ccnn23)cc1 | -14% | 1.46

Compound | % Inhibition | Z score
COc1ccc([C@H](CNC(=O)c2ccc(Cl)c(N3CCCC3=O)c2)N2CCCCC2)cc1 | 2% | -0.3
Cc1cccc(/N=C(/NC(=O)c2cccc(Cl)c2)N2CCN(Cc3ccccc3F)CC2)c1 | -5% | 0.92
C=CCOC1C[C@](OCc2cccc(C)c2)(C(=O)NCC2CC2)C[C@H]2OC(C)(C)O[C@@H]12 (stereo partly specified) | -9% | 1.25
O=C(CCc1cc(F)ccc1F)NCC1(O)CCOCC1 | 0% | -0.04
C[C@H]1Cc2ccccc2N(Cc2nc(C(=O)O)co2)C1 | -2% | 0.28
O[C@@H]1CN(c2noc(C3CC3)n2)CCN(C2CCCC2)C1 | -12% | 1.71
COc1cc(Cl)c(C)cc1NC(=O)[C@@H](C#N)C(=O)c1cnn(C)c1 | -7% | 1.13
CCN(C(=O)Nc1cc(C)c(Cl)cc1OC)[C@H]1COC[C@@H]1O | -12% | 1.77
O=C(c1ccc2nccn2c1)N1CCN(Cc2cc(F)cc(F)c2)CC1 | -10% | 1.78
COc1ccc(NC(C)(C)C(=O)N2CC[C@H](CO)[C@@H](O)C2)cc1 | 10% | -2.02
Cc1ncsc1CCC(=O)NCc1nnc2n1CCC2 | 7% | -0.93
Cn1ncc(NC(=O)Cn2cc(-c3ccc4ccccc4n3)cn2)n1 | -11% | 1.51
COc1ccc(C[C@H](N)c2nc(C3CC3)nn2C2CCN(C)CC2)cc1 | 1% | -0.13
OC1CCN(Cc2ccc(CNCc3ccco3)cc2)CC1 | -8% | 1.12
Cc1ccc(CNC(=O)N2CCCC[C@@H]2CCO)c(N2CCCC2)c1 | 0% | -0.04
O=C(c1ccncc1)N1CCc2[nH]c(-c3ccccc3)nc2C1 | -11% | 2.13
CCNC(=O)N(CCN(CC)CC)CC(=O)N1CCCN(c2ccc(-c3ccc(OC)cc3)nn2)CC1 | -12% | 2.11
O=C(NCCc1ccccc1)N1CC[C@@]2(C1)Nc1cccnc1N=C2NC1CCCC1 | 37% | -4.15
CC(C)Cn1ncnc1CN1C[C@H](CO)Oc2ccccc21 | -2% | 0.2
CC(C)(C)c1n[nH]cc1CNC1CCN(C2CC2)CC1 | 3% | -0.58
Cc1conc1NS(=O)(=O)c1cc(Cl)ccc1OCCC1CC1 | -3% | 0.46
CCN1CCC[C@@H]1CNCc1ccco1 | -5% | 0.88
O=C(c1csc(-c2cccs2)n1)N1CCCOCC1 | -8% | 1.45
CC(C)C1(c2ccccc2)CN(C(=O)CCc2cncc(F)c2)C1 | -8% | 1.03
COc1ccc(CN(C(=O)c2ccc(F)cc2)c2nc3[nH]c(C)c(Cc4ccccc4)c(=O)n3n2)cc1 | -12% | 1.99
O=C(NC1CC1)[C@H](Nc1cccc2c1OCCO2)c1ccccc1 | -1% | 0.17
